{"source": "PubChem BioAssay AID588855", "about": "(National Center for Advancing Translational Sciences (NCATS), 2011)", "note": "Out of some 410,000 compounds screened, about 5,000 (1.2%) were called active. The inconclusive results got no clear call from the source; some entries with a clear call stand among them for comparison. Calls follow the shape of the dose curve; as a rule, active = well fitted inhibition curve with a large enough effect; inconclusive = small, poorly fitted or top-dose-only effect; inactive = no such curve, though single readings can be large or run the other way. Potencies of inconclusive entries are doubtful fits and often do not repeat. % is scaled to controls: 0 for no effect and ±100 for the full control effect; potency is read from the fitted curve at half-maximal effect; tags tell the direction and shape of the fitted curve."}
{"assay": "qHTS for Inhibitors of TGF-b; also: nearly all actives have a fitted effect of over 65% in size", "details": "HepG2 CAGA-GFP TGF-b/SMAD3 reporter, GFP fluorescence, 18 h, TGF-beta stimulated, 500 pg/mL final; series mostly up to 46.1 µM; activity, negative = inhibition: at the top concentration", "summary_of_the_method": "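Inhibition was scored as loss of TGF-beta-induced (500 pg/mL final, 18 hours, 37 degrees C) GFP in HEPG2 cells carrying a CAGA-GFP reporter, in DMEM with 1% FBS. Well GFP was summed per cell; Activity was normalised to unstimulated and stimulated DMSO wells, then concentration-response fitting.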"}
{"compound": "CCOC(=O)c1cn2nc(Oc3ccc(C#N)cc3)ccc2n1", "activity, negative = inhibition": "inactive: 5.7%"}
{"compound": "COc1cc(/C=N/Nc2ccc(C(F)(F)F)cn2)cc(OC)c1O", "Potency": "inconclusive: 4.47 µM [inhibitor, partial curve, poor fit]"}
{"compound": "COc1ccc(C(=O)C2CCCN(Cc3sc(N4CCCC4)nc3Cl)C2)c(OC)c1", "note": "(stereo unspecified)", "Potency": "inconclusive: 25.1 µM [inhibitor, single point]"}
{"compound": "COc1ccc(C2/C=C\\CN(S(=O)(=O)c3cccc4cccnc34)CC(=O)N2Cc2ccc(F)cc2)cc1", "note": "(stereo unspecified)", "Potency": "inconclusive: 20 µM [inhibitor, single point]"}
{"compound": "COCCn1c(SCc2c(F)cccc2Cl)nc2c1c(=O)[nH]c(=O)n2C", "Potency": "inconclusive: 35.5 µM [inhibitor, partial curve, poor fit]"}
{"compound": "C/C(=N\\NC(=O)c1nnn(-c2nonc2N)c1CN1CCc2ccccc21)c1ccccc1O", "Potency": "inconclusive: 6.31 µM [inhibitor, full curve, poor fit]"}
{"compound": "Cc1ccc(S(=O)(=O)N(CC(=O)Nc2ccc3c(c2)OCO3)c2cc(Cl)cc(Cl)c2)cc1", "Potency": "inconclusive: 5.01 µM [inhibitor, partial curve]"}
{"compound": "CCCCn1c(=N)n(CC(O)COc2cccc(C)c2)c2ccccc21", "note": "(stereo unspecified)", "Potency": "inconclusive: 35.5 µM [inhibitor, single point]"}
{"compound": "COc1cc(/C(C)=N/NC(=O)CSc2nncn2C)ccc1OCc1ccccc1Cl", "Potency": "inconclusive: 35.5 µM [inhibitor, single point]"}
{"compound": "Cn1c(=O)oc2cc(S(=O)(=O)NCCC(=O)Nc3ccc(F)cc3F)ccc21", "Potency": "inconclusive: 6.31 µM [inhibitor, single point]"}
{"compound": "O=C(N/N=C(/CC(=O)c1cccs1)C(F)(F)F)c1ccc(O)cc1", "Potency": "inconclusive: 35.5 µM [inhibitor, single point]"}
{"compound": "Cc1cccc(C)c1NC(=O)c1cccc2c1C(=O)N(C1CCCCC1)C2", "Potency": "inconclusive: 25.1 µM [inhibitor, single point]"}
{"compound": "COc1cccc(-n2c(=O)c3sc4ccccc4c3n(CC(=O)NC3CCCCC3)c2=O)c1", "activity, negative = inhibition": "inactive: -3.08%"}
{"compound": "CC(=O)c1c(C)[nH]c(C(=O)Nc2ccc(C)c(S(=O)(=O)Nc3ccc(C)cc3C)c2)c1C", "Potency": "inconclusive: 35.5 µM [inhibitor, single point]"}
{"compound": "CC1CCc2nc3sc4c(c3c(N)c2C1)CCCC4", "note": "(stereo unspecified)", "Potency": "inconclusive: 20 µM [inhibitor, partial curve, poor fit]"}
{"compound": "Nc1c(C(=O)O)ccc2c1C(=O)c1ccccc1C2=O", "activity, negative = inhibition": "inactive: -0.477%"}
{"compound": "Cc1cccnc1C1=NOC(Cc2ccccc2)C(=O)N1C", "note": "(stereo unspecified)", "activity, negative = inhibition": "inactive: -4.85%"}
{"compound": "COc1ccc(-c2nc(C)c(CCNS(=O)(=O)c3cc(Cl)ccc3Cl)s2)cc1", "Potency": "inconclusive: 17.8 µM [inhibitor, single point]"}
{"compound": "COc1ccccc1CCc1nnc(CCC(=O)N(C)Cc2cccc3cnccc23)o1", "activity, negative = inhibition": "inactive: -19.7%"}
{"compound": "O=C(Nc1ccc([N+](=O)[O-])cc1Cl)c1cc(Cl)cc(Cl)c1O", "Potency": "inconclusive: 2.24 µM [inhibitor, full curve, poor fit]"}
{"compound": "Cc1ccc(C(=O)Nc2ccccc2C(=O)O)cc1S(=O)(=O)Nc1ccc(Br)cc1", "Potency": "inconclusive: 20 µM [inhibitor, single point]"}
{"compound": "C#CC[N+](C)(C)CCCCCCCCCCCC", "Potency": "inconclusive: 22.4 µM [inhibitor, single point]"}
{"compound": "CN1CCN(CCCCOc2ccccc2C=O)CC1", "activity, negative = inhibition": "inactive: -15.5%"}
{"compound": "COC(=O)CN1C(=O)CSc2ccc(S(=O)(=O)Nc3cc(C)ccc3C)cc21", "Potency": "inconclusive: 35.5 µM [inhibitor, single point]"}
{"compound": "Cc1ccc(-c2nc(C)sc2CC(=O)OCC(=O)Nc2cccc([N+](=O)[O-])c2)cc1", "Potency": "inconclusive: 2.82 µM [inhibitor, partial curve, poor fit]"}
{"compound": "C[C@H]1CN([C@@H](C)CO)C(=O)CCCn2cc(nn2)CO[C@@H]1CN(C)C(=O)Nc1ccc(N2CCCCC2)cc1", "activity, negative = inhibition": "inactive: 12.3%"}
{"compound": "COc1cccc(-c2nc(C(=O)NCCCN3CCOCC3)cc3c2[nH]c2ccccc23)c1", "Potency": "inconclusive: 35.5 µM [inhibitor, single point]"}
{"compound": "O=c1[nH]c(NC2CCN(S(=O)(=O)c3ccccc3C(F)(F)F)CC2)nc2c1CCCC2", "Potency": "inconclusive: 4.47 µM [inhibitor, full curve]"}
{"compound": "COc1cc(NS(=O)(=O)c2ccc(NC(=O)C34CC5CC(CC(C5)C3)C4)cc2)ncn1", "Potency": "inconclusive: 31.6 µM [inhibitor, single point]"}
{"compound": "COc1ccc(-c2c(C)nn(Cc3ccccc3)c2N)cc1", "activity, negative = inhibition": "inactive: 11.4%"}
{"compound": "O=C(CNC(=O)c1ccc(F)cc1)OCc1cc(=O)n2nc(C3CC3)sc2n1", "Potency": "inconclusive: 5.62 µM [inhibitor, single point]"}
{"compound": "CCCCCC(=O)Nc1cccc(C2=NOC3(C2)C[C@@H](C(N)=O)N(C(=O)CC(c2ccccc2)c2ccccc2)C3)c1", "note": "(stereo partly specified)", "Potency": "inconclusive: 15.8 µM [inhibitor, partial curve, poor fit]"}
{"compound": "O=C(N[C@@H](Cc1ccccc1)C(=O)OCc1ccccc1)c1nc[nH]c1C(=O)N1CCc2ccccc2C1", "Potency": "inconclusive: 35.5 µM [inhibitor, single point]"}
{"compound": "CC(C)CNC(=O)c1coc(=O)c(Br)c1", "Potency": "active: 14.1 µM"}
{"compound": "Cc1ccc(NC(=O)COC(=O)/C(=C/c2cccs2)c2cccs2)cc1S(=O)(=O)N(C)C", "Potency": "inconclusive: 20 µM [inhibitor, single point]"}
{"compound": "CCCc1cc(-c2[nH]ncc2-c2ccc(C(=O)OCC)o2)c(O)cc1O", "Potency": "active: 10 µM"}
{"compound": "Cc1cc(Nc2nc3ccccc3[nH]c2=O)n(-c2ccccc2)n1", "Potency": "active: 10 µM"}
{"compound": "COc1ccc(C(=O)Nc2ccccc2Cc2ccccc2)c(OC)c1", "Potency": "inconclusive: 6.31 µM [inhibitor, full curve, poor fit]"}
{"compound": "CC1=Nc2cc(C(=O)NCc3ccccc3Cl)ccc2Sc2c(C)ccc(C)c21", "Potency": "inconclusive: 7.08 µM [inhibitor, full curve]"}
{"compound": "COc1cc(/C=N/NC(=O)CC#N)cc(Br)c1O", "Potency": "inconclusive: 2.82 µM [inhibitor, single point]"}
{"compound": "O=C(c1cc(F)c(F)cc1Cl)N1CCN(S(=O)(=O)c2cccs2)CC1", "activity, negative = inhibition": "inactive: 18.1%"}
{"compound": "CCc1c(C)nc2ncnn2c1N1CCCC(C(=O)NCCc2ccc(OC)cc2)C1", "note": "(stereo unspecified)", "activity, negative = inhibition": "inactive: 0%"}
{"compound": "O=C(Nc1ccn(Cc2c(F)c(F)cc(F)c2F)n1)c1ccc(COc2ccc(Cl)cc2Cl)o1", "Potency": "inconclusive: 35.5 µM [inhibitor, single point]"}
{"compound": "COC(=O)c1[nH]nc2c1C(=O)N(C1CCCCC1)C2=O", "Potency": "inconclusive: 15.8 µM [inhibitor, single point]"}
{"compound": "Cc1ccccc1-c1cc2c(nn1)-c1ccccc1C2=O", "Potency": "inconclusive: 7.08 µM [inhibitor, partial curve, poor fit]"}
{"compound": "O=C(NC(=S)Nc1ccccn1)c1ccco1", "Potency": "inconclusive: 20 µM [inhibitor, single point]"}
{"compound": "O=C(NCc1ccc2c(c1)OCO2)c1ccc(CSCc2cccc(Cl)c2)o1", "Potency": "inconclusive: 22.4 µM [inhibitor, single point]"}
{"compound": "CCN(CC(=O)NC(C)C)C(=O)[C@@H](NC(=O)c1ccco1)C(C)C", "activity, negative = inhibition": "inactive: -0.0454%"}
{"compound": "O=C(CN1C(=O)C(c2ccc(F)cc2)=NC12CCCCCC2)Nc1ccccc1Cl", "Potency": "inconclusive: 20 µM [inhibitor, partial curve, poor fit]"}
{"compound": "Cc1ccc(NC(=S)NNC(=O)Cn2nc([N+](=O)[O-])cc2C)cc1", "Potency": "inconclusive: 20 µM [inhibitor, single point]"}
{"compound": "COc1ccc(OC2(C)CCN(Cc3ccc(-c4ccccc4)o3)C2)cc1", "note": "(stereo unspecified)", "Potency": "inconclusive: 35.5 µM [inhibitor, single point]"}
{"compound": "Cc1cccc(NC(=O)C2CC(=O)N(c3ccccc3)C2)c1C", "note": "(stereo unspecified)", "activity, negative = inhibition": "inactive: 4.37%"}
{"compound": "CCOc1ccccc1N(C)C(=O)c1sc2ncn(CC(=O)N3CCCCC3C)c(=O)c2c1C", "note": "(stereo unspecified)", "activity, negative = inhibition": "inactive: 15.3%"}
{"compound": "CCC(=O)NC(c1ccco1)c1cc(Cl)c2ccccc2c1O", "note": "(stereo unspecified)", "Potency": "inconclusive: 35.5 µM [inhibitor, single point]"}
{"compound": "CN1C(=O)/C(=C/c2cc(C(C)(C)C)c(O)c(C(C)(C)C)c2)NC1=S", "activity, negative = inhibition": "inactive: 6.08%"}
{"compound": "Cc1nc2cccnc2n1-c1cccc(C(=O)N2CCN(c3cccc(Cl)c3)CC2)c1", "Potency": "inconclusive: 2.24 µM [inhibitor, partial curve, poor fit]"}
{"compound": "COc1ccc(-c2nnc(SCC(=O)NCCc3ccc(OC)c(OC)c3)nc2-c2ccc(OC)cc2)cc1", "Potency": "inconclusive: 35.5 µM [inhibitor, single point]"}
{"compound": "COc1ccc(-c2cc(C(=O)N3CCOCC3)c3ccccc3n2)cc1OC", "activity, negative = inhibition": "inactive: -1.05%"}
{"compound": "CN(CC(O)COCc1cccs1)C1CCCCC1", "note": "(stereo unspecified)", "Potency": "inconclusive: 6.31 µM [inhibitor, single point]"}
{"compound": "Cc1ccc(C)c(N2CCN(S(=O)(=O)c3cc(-c4cc(C)no4)ccc3C)CC2)c1", "Potency": "inconclusive: 1.78 µM [inhibitor, full curve, poor fit]"}
{"compound": "Cc1ccc(-c2nnc(Nc3cccc(Cl)c3)c3ccccc23)cc1S(=O)(=O)N1CCCCC1", "activity, negative = inhibition": "inactive: -17.5%"}
{"compound": "CNC(=O)C[C@H]1C(=O)N(C2CCCCC2)C[C@@H]1CSC", "activity, negative = inhibition": "inactive: 5.9%"}
{"compound": "CN(C)S(=O)(=O)c1cccc(NC(=S)NCCc2ccccn2)c1", "activity, negative = inhibition": "inactive: -6.19%"}
{"compound": "COc1ccccc1-c1oc2ccccc2c1C#CC1(N)CCCCC1", "Potency": "inconclusive: 35.5 µM [inhibitor, single point]"}
{"compound": "Cc1ccc(CNC(=O)c2ccccc2NS(=O)(=O)c2ccc(Cl)nc2)cc1", "Potency": "active: 15.8 µM"}
{"compound": "COc1ccc(F)cc1-c1cc(C(=O)NCc2cc(C(F)(F)F)cc(C(F)(F)F)c2)[nH]n1", "Potency": "inconclusive: 15.8 µM [inhibitor, single point]"}
